Data from the supplement of paper PMC8728848.
The list shows a part of the results.

Columns and labels:
Experiment in all cases: glycan array binding signal (z-score within array); higher = stronger binding
Conditions in all cases: glycan notation: IUPAC condensed, linker removed
[1] = target: Gal(b1-3)GlcNAc(b1-3)Gal(b1-4)GlcNAc
Outline: (§1)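 Arrays were curated from the Consortium for Functional Glycomics database, 3228 in total, and kept only where the protein sequence was available. Binding is expressed as a within-array Z-score. This score was averaged across arrays of the same protein sequence at different concentrations or buffers and across linkers, and negative values can be read as non-binding.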

[2] = target: Gal(b1-3)GlcNAc(b1-3)Gal(b1-4)GlcNAc(b1-6)[Gal(b1-3)GlcNAc(b1-3)]Gal(b1-4)Glc
Outline: as §1

[3] = target: Gal(b1-3)GlcNAc(b1-3)Gal(b1-4)[Fuc(a1-3)]GlcNAc(b1-6)[Gal(b1-3)GlcNAc(b1-3)]Gal(b1-4)Glc
Outline: as §1

[4] = target: Gal(b1-3)GlcNAc(b1-3)GalNAc
Outline: as §1

[5] = target: Gal(b1-3)GlcNAc(b1-6)Gal(b1-4)GlcNAc
Outline: as §1

[6] = target: Gal(b1-3)[Fuc(a1-4)]GlcNAc
Outline: as §1

[7] = target: Gal(b1-3)[Fuc(a1-4)]GlcNAc(b1-2)Man(a1-3)[Gal(b1-3)[Fuc(a1-4)]GlcNAc(b1-2)Man(a1-6)]Man(b1-4)GlcNAc(b1-4)GlcNAc
Outline: as §1

[8] = target: Gal(b1-3)[Fuc(a1-4)]GlcNAc(b1-2)Man(a1-3)[Gal(b1-3)[Fuc(a1-4)]GlcNAc(b1-2)Man(a1-6)]Man(b1-4)GlcNAc(b1-4)[Fuc(a1-6)]GlcNAc
Outline: as §1

[9] = target: Gal(b1-3)[Fuc(a1-4)]GlcNAc(b1-3)Gal(b1-3)[Fuc(a1-4)]GlcNAc
Outline: as §1

[10] = target: Gal(b1-3)[Fuc(a1-4)]GlcNAc(b1-3)Gal(b1-4)GlcNAc
Outline: as §1

[11] = target: Gal(b1-3)[Fuc(a1-4)]GlcNAc(b1-3)Gal(b1-4)[Fuc(a1-3)]GlcNAc
Outline: as §1

[12] = target: Gal(b1-3)[GlcNAc(b1-6)]GalNAc
Outline: as §1

[13] = target: Gal(b1-3)[Neu5Ac(a2-6)]GalNAc
Outline: as §1

[14] = target: Gal(b1-3)[Neu5Ac(a2-6)]GlcNAc(b1-6)Gal(b1-4)Glc
Outline: as §1

[15] = target: Gal(b1-3)[Neu5Ac(b2-6)]GalNAc
Outline: as §1

Gal(b1-4)Gal = target: Gal(b1-4)Gal
Outline: as §1

[16] = target: Gal(b1-4)GalNAc(a1-3)[Fuc(a1-2)]Gal(b1-4)GlcNAc
Outline: as §1

[17] = target: Gal(b1-4)GalNAc(b1-3)[Fuc(a1-2)]Gal(b1-4)GlcNAc
Outline: as §1

Gal(b1-4)Glc = target: Gal(b1-4)Glc
Outline: as §1

Gal(b1-4)Glc6S = target: Gal(b1-4)Glc6S
Outline: as §1

Gal(b1-4)GlcNAc = target: Gal(b1-4)GlcNAc
Outline: as §1

[18] = target: Gal(b1-4)GlcNAc(a1-6)Gal(b1-4)GlcNAc
Outline: as §1

[19] = target: Gal(b1-4)GlcNAc(b1-2)Man(a1-3)Man(b1-4)GlcNAc(b1-4)GlcNAc
Outline: as §1

[20] = target: Gal(b1-4)GlcNAc(b1-2)Man(a1-3)[Gal(b1-4)GlcNAc(b1-2)Man(a1-6)]Man(b1-4)GlcNAc(b1-4)GlcNAc
Outline: as §1

[21] = target: Gal(b1-4)GlcNAc(b1-2)Man(a1-3)[Gal(b1-4)GlcNAc(b1-2)Man(a1-6)]Man(b1-4)GlcNAc(b1-4)[Fuc(a1-6)]GlcNAc
Outline: as §1

[22] = target: Gal(b1-4)GlcNAc(b1-2)Man(a1-3)[Gal(b1-4)GlcNAc(b1-2)][GlcNAc(b1-4)]Man(b1-4)GlcNAc(b1-4)GlcNAc
Outline: as §1

[23] = target: Gal(b1-4)GlcNAc(b1-2)Man(a1-3)[GlcNAc(b1-2)Man(a1-6)]Man(b1-4)GlcNAc(b1-4)GlcNAc
Outline: as §1

[24] = target: Gal(b1-4)GlcNAc(b1-2)Man(a1-3)[Man(a1-6)]Man(b1-4)GlcNAc(b1-4)GlcNAc
Outline: as §1

[25] = target: Gal(b1-4)GlcNAc(b1-2)Man(a1-6)Man(b1-4)GlcNAc(b1-4)GlcNAc
Outline: as §1

[26] = target: Gal(b1-4)GlcNAc(b1-2)Man(a1-6)[GlcNAc(b1-2)Man(a1-3)]Man(b1-4)GlcNAc(b1-4)GlcNAc
Outline: as §1

[27] = target: Gal(b1-4)GlcNAc(b1-2)Man(a1-6)[Man(a1-3)]Man(b1-4)GlcNAc(b1-4)GlcNAc
Outline: as §1

[28] = target: Gal(b1-4)GlcNAc(b1-2)[Gal(b1-4)GlcNAc(b1-4)]Man(a1-3)[Gal(b1-4)GlcNAc(b1-2)Man(a1-6)]Man(b1-4)GlcNAc(b1-4)GlcNAc
Outline: as §1

[29] = target: Gal(b1-4)GlcNAc(b1-2)[Gal(b1-4)GlcNAc(b1-4)]Man(a1-3)[Gal(b1-4)GlcNAc(b1-2)[Gal(b1-4)GlcNAc(b1-6)]Man(a1-6)]Man(b1-4)GlcNAc(b1-4)GlcNAc
Outline: as §1

[30] = target: Gal(b1-4)GlcNAc(b1-2)[Gal(b1-4)GlcNAc(b1-4)]Man(a1-3)[GlcNAc(b1-4)][Gal(b1-4)GlcNAc(b1-2)Man(a1-6)]Man(b1-4)GlcNAc(b1-4)GlcNAc
Outline: as §1

[31] = target: Gal(b1-4)GlcNAc(b1-2)[Gal(b1-4)GlcNAc(b1-6)]Man(a1-6)[GlcNAc(b1-4)][Gal(b1-4)GlcNAc(b1-2)Man(a1-3)]Man(b1-4)GlcNAc(b1-4)GlcNAc
Outline: as §1

[32] = target: Gal(b1-4)GlcNAc(b1-3)Gal(b1-3)GlcNAc
Outline: as §1

[33] = target: Gal(b1-4)GlcNAc(b1-3)Gal(b1-4)Glc
Outline: as §1

[34] = target: Gal(b1-4)GlcNAc(b1-3)Gal(b1-4)GlcNAc
Outline: as §1

[35] = target: Gal(b1-4)GlcNAc(b1-3)Gal(b1-4)GlcNAc(b1-3)Gal(b1-4)GlcNAc
Outline: as §1

[36] = target: Gal(b1-4)GlcNAc(b1-3)Gal(b1-4)[Fuc(a1-3)GlcNAc(b1-6)]Gal(b1-4)Glc
Outline: as §1

[37] = target: Gal(b1-4)GlcNAc(b1-3)Gal(b1-4)[Fuc(a1-3)]GlcNAc(b1-3)Gal(b1-4)[Fuc(a1-3)]GlcNAc
Outline: as §1

[38] = target: Gal(b1-4)GlcNAc(b1-3)GalNAc
Outline: as §1

[39] = target: Gal(b1-4)GlcNAc(b1-3)[Gal(b1-4)GlcNAc(b1-6)]Gal(b1-4)GlcNAc
Outline: as §1

[40] = target: Gal(b1-4)GlcNAc(b1-3)[Gal(b1-4)GlcNAc(b1-6)]GalNAc
Outline: as §1

[41] = target: Gal(b1-4)GlcNAc(b1-3)[GlcNAc(b1-6)]Gal(b1-4)GlcNAc
Outline: as §1

B1: LSectin (Mus musculus), Q8BNX1 (protein)
chain: MNTGEYNKLGSAIEEVSRGQLGRWECYKQRLFFLVLALLVATVLWALILSTLLSSASSKLRVLLSHQDLLRTNASEQKMTLSSLKDDIGACRNCCSVTKAQLQTTLAEFKDIQAKLMEQESILKELQERVTQDLAKASRDRENIRSELFQALEAVKRQNSSCEQCPPSWLPFQGSCYYFSETQATWDTAQSYCGGQGAHLVIVRGLNEQGFLSQHTRGRGYWLGLRAVRHLNKIQGYRWVDGASLNFSHWNSGEPNDSRGHEDCIMMLHSGLWNDAPCTNERDGWICEKRSSCY
glycan array binding signal (z-score) [1]: -0.175
glycan array binding signal (z-score) [2]: -0.185
glycan array binding signal (z-score) [3]: -0.177
glycan array binding signal (z-score) [4]: -0.18
glycan array binding signal (z-score) [5]: -0.178
glycan array binding signal (z-score) [6]: -0.164
glycan array binding signal (z-score) [7]: -0.166
glycan array binding signal (z-score) [8]: -0.183
glycan array binding signal (z-score) [9]: -0.172
glycan array binding signal (z-score) [10]: -0.176
glycan array binding signal (z-score) [11]: -0.174
glycan array binding signal (z-score) [12]: -0.172
glycan array binding signal (z-score) [13]: -0.165
glycan array binding signal (z-score) [14]: -0.162
glycan array binding signal (z-score) [15]: -0.191
glycan array binding signal (z-score) (Gal(b1-4)Gal): -0.179
glycan array binding signal (z-score) [16]: -0.169
glycan array binding signal (z-score) [17]: -0.159
glycan array binding signal (z-score) (Gal(b1-4)Glc): -0.18
glycan array binding signal (z-score) (Gal(b1-4)Glc6S): -0.144
glycan array binding signal (z-score) (Gal(b1-4)GlcNAc): -0.144
glycan array binding signal (z-score) [18]: -0.143
glycan array binding signal (z-score) [19]: -0.177
glycan array binding signal (z-score) [20]: -0.167
glycan array binding signal (z-score) [21]: -0.168
glycan array binding signal (z-score) [22]: -0.172
glycan array binding signal (z-score) [23]: 1.57
glycan array binding signal (z-score) [24]: -0.189
glycan array binding signal (z-score) [25]: -0.188
glycan array binding signal (z-score) [26]: 4.08
glycan array binding signal (z-score) [27]: -0.141
glycan array binding signal (z-score) [28]: -0.185
glycan array binding signal (z-score) [29]: -0.178
glycan array binding signal (z-score) [30]: -0.186
glycan array binding signal (z-score) [31]: -0.184
glycan array binding signal (z-score) [32]: -0.165
glycan array binding signal (z-score) [33]: -0.186
glycan array binding signal (z-score) [34]: -0.177
glycan array binding signal (z-score) [35]: -0.175
glycan array binding signal (z-score) [36]: -0.19
glycan array binding signal (z-score) [37]: -0.175
glycan array binding signal (z-score) [38]: -0.184
glycan array binding signal (z-score) [39]: -0.184
glycan array binding signal (z-score) [40]: -0.192
glycan array binding signal (z-score) [41]: -0.184
